Results from the supplement of paper PMC5919970.
Shown are results outside the selection of lowest values, which stands elsewhere.

What was measured:
TYKNU [1] = assay: fractional viability relative to vehicle; TYKNU is a high-grade serous ovarian cancer line; higher = less growth inhibition; details: 72 h, genotype: OPA1 knockout (sgOPA1 #2)
Outline: (§1)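 TYKNU control cells or lentiCRISPRv2 knockout derivatives were seeded at 500 cells per well into drug-stamped 384-well plates holding a ~2100-compound library at 2 or 10 μM, in duplicate. Cells were grown at 37 °C in 5% CO2 in RPMI 1640 with 10% FBS, and drug treatment lasted 72 h. Viability was read by Cell Titer Glo luminescence. Duplicate treatment wells were averaged and normalised to duplicate control wells from the same plate position.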

TYKNU [2] = assay: as above; details: 72 h
Outline: as §1

[3] = 2uM, genotype: DNM1L knockout (sgDNM1L #1)
[4] = 2uM, genotype: sgCTRLA1 (non-targeting control)
[5] = 10uM, genotype: DNM1L knockout (sgDNM1L #1)
[6] = 10uM, genotype: sgCTRLA1 (non-targeting control)

Row | Compound | fractional viability (TYKNU [1]; 2uM) | fractional viability (TYKNU [1]; 10uM) | fractional viability (TYKNU [2]; [3]) | fractional viability (TYKNU [2]; [4]) | fractional viability (TYKNU [2]; [5]) | fractional viability (TYKNU [2]; [6])
1 | Cc1ccccc1-n1c(Cn2nc(-c3cccc(O)c3)c3c(N)ncnc32)nc2cccc(C)c2c1=O | 1.07 | 1.06 | 1 | 1.11 | 0.748 | 1
2 | Cc1nc2c(-c3cnc(N)nc3)nc(N3CCOCC3)nc2n1C(C)C | 0.445 | 0.35 | 0.191 | 0.212 | 0.177 | 0.16
3 | Cc1ccc(C(=O)NCCCCCC(=O)Nc2ccccc2N)cc1 | 0.808 | 0.42 | 0.755 | 0.952 | 0.333 | 0.58
4 | CN1C2CCC1CC(OC(=O)C(O)c1ccccc1)C2 (centres undefined) [Homatropine Bromide] | 1.11 | 0.858 | 1.14 | 1.19 | 0.855 | 1.13
